We go through 153 variants from a collection of fitness landscapes (doi:10.1126/science.1257360).

The other results are listed elsewhere or left out.

The labels stand for the following.
B1: PhoQ; a variant is named by its letters at X, in order, P23837 (parent)
chain: MKKLLRLFFPLSLRVRFLLATAAVVLVLSLAYGMVALIGYSVSFDKTTFRLLRGESNLFYTLAKWENNKLHVELPENIDKQSPTMTLIYDENGQLLWAQRDVPWLMKMIQPDWLKSNGFHEIEADVNDTSLLLSGDHSIQQQLQEVREDDDDAEMTHSVAVNVYPATSRMPKLTIVVVDTIPVELKSSYMVWSWFIYVLSANLLLVIPLLWVAAWWSLRPIEALAKEVRELEEHNRELLNPATTRELTSLVRNLNRLLKSERERYDKYRTTLTDLTHSLKTPLXXLQXXLRSLRSEKMSVSDAEPVMLEQISRISQQIGYYLHRASMRGGTLLSRELHPVAPLLDNLTSALNKVYQRKGVNISLDISPEISFVGEQNDFVEVMGNVLDNACKYCLEFVEISARQTDEHLYIVVEDDGPGIPLSKREVIFDRGQRVDTLRPGQGVGLAVAREITEQYEGKIVAGESMLGGARMEVIFGRQHSAPKDE

The variants in the assay derive from B1. Briefly: enrichment ratio after two sorts for PhoP signalling (ratio (wild type AVST 3.29)); higher = more functional. The note with it: with PhoP (E. coli).
YSMI: the enrichment ratio was determined as 7.06.
Then EICD, with no more than 0.25; and NNPG, with no more than 0.25.
In the case of WGSH it was no more than 0.25; in that of KHEN, no more than 0.25.
In the case of DRKL it was no more than 0.25; in that of DEWY, no more than 0.25; in that of QART, no more than 0.25.
As for AWGW, the enrichment ratio was no more than 0.25.
In the case of KIQQ, the enrichment ratio was no more than 0.25.
Turning to QNCW, the enrichment ratio is no more than 0.25.
Then SCQY, with no more than 0.25; and IEED, with no more than 0.25; and NIFM, with no more than 0.25.
In the case of PDVC it was no more than 0.25; in that of PPDT, no more than 0.25; in that of ERKC, no more than 0.25.
Take GWWY: the enrichment ratio was no more than 0.25.
Then IGYE, with no more than 0.25; and LAPQ, with no more than 0.25; and DDAF, with no more than 0.25.
Then IWTE, with no more than 0.25; and RSAS, with no more than 0.25.
For the variant YYPQ, the enrichment ratio was no more than 0.25.
Then PTDF, with no more than 0.25.
Then REEM, with no more than 0.25; and NIAH, with no more than 0.25; and KKCD, with no more than 0.25.
In the case of DSRI it was no more than 0.25; in that of LYYS, no more than 0.25.
Regarding DLFC, the enrichment ratio was no more than 0.25.
Then DCAG, with no more than 0.25; and VIQG, with no more than 0.25.
With EHVM, the enrichment ratio is no more than 0.25.
Then FQEK, with no more than 0.25.
Turning to WFTC, the enrichment ratio is no more than 0.25.
In the case of YGPL it was no more than 0.25.
Then VFGP, with no more than 0.25; and IPWV, with no more than 0.25; and YLSN, with 0.298.
In the case of HYAP it was no more than 0.25; in that of QHPE, no more than 0.25.
As for YGGI, the enrichment ratio was no more than 0.25.
In the case of DTGP it was no more than 0.25; in that of HDEC, no more than 0.25.
In the case of IGAI it was no more than 0.25; in that of WPMS, no more than 0.25.
Then FTTN, with no more than 0.25; and FEVM, with 11.6; and FQAE, with no more than 0.25.
For the variant VNPV, the enrichment ratio was no more than 0.25.
On to QAMA, for which the enrichment ratio was no more than 0.25.
In the case of ECRT it was no more than 0.25.
In the case of FPMF it was no more than 0.25.
In the case of LIYP it was no more than 0.25; in that of TGQV, 6.45; in that of MIRH, no more than 0.25.
Take HPKL: the enrichment ratio is no more than 0.25.
Consider DDNS, for which the enrichment ratio is no more than 0.25.
Consider VGQY, for which the enrichment ratio was no more than 0.25.
Then FEAE, with no more than 0.25.
As for YVSF, the enrichment ratio is 0.358.
In the case of LFQW it was no more than 0.25; in that of ANNI, 0.277; in that of PKDF, no more than 0.25.
Then IHDE, with no more than 0.25; and KEYD, with no more than 0.25; and DADW, with no more than 0.25.
In the case of QHIS it was no more than 0.25.
As to EIRW, the enrichment ratio was no more than 0.25.
Then MHDP, with no more than 0.25; and GAWN, with no more than 0.25; and VRLG, with no more than 0.25.
Then GTNE, with no more than 0.25; and ARFR, with no more than 0.25; and WRHL, with no more than 0.25.
On to GKSL, for which the enrichment ratio is no more than 0.25.
Then QCKL, with no more than 0.25; and VFDE, with no more than 0.25; and GMIN, with no more than 0.25.
Then GALR, with no more than 0.25; and GLVM, with 16.2; and FCQF, with 1.3.
Then GLSL, with 11.5; and EEYM, with no more than 0.25.
For DACS, the enrichment ratio is no more than 0.25.
In the case of SVVQ it was 2.72.
Then NDPR, with no more than 0.25.
On to HPLP, for which the enrichment ratio was no more than 0.25.
In the case of SMHK it was no more than 0.25.
In the case of HGKK it was no more than 0.25; in that of HRIY, no more than 0.25.
Then SVGW, with 14.4.
For the variant INVC, the enrichment ratio was no more than 0.25.
On to PRWP, for which the enrichment ratio is no more than 0.25.
Then ILPE, with no more than 0.25; and KPPI, with no more than 0.25.
Then NKSA, with no more than 0.25; and GGLM, with 2.85.
Then FRSI, with no more than 0.25.
For the variant QTDS, the enrichment ratio came out at 8.33.
Then VRKK, with no more than 0.25.
Then LAQF, with no more than 0.25; and IRIF, with no more than 0.25; and MFRM, with no more than 0.25.
Then PKRG, with no more than 0.25.
Turning to MTTQ, the enrichment ratio is no more than 0.25.
In the case of WFVV it was no more than 0.25; in that of YEAP, no more than 0.25.
In the case of NYLS it was no more than 0.25.
Turning to RVKN, the enrichment ratio was no more than 0.25.
Then QVFS, with no more than 0.25.
Then SPVG, with no more than 0.25.
In the case of VRDN it was no more than 0.25; in that of FCGL, no more than 0.25; in that of MTDM, no more than 0.25.
Regarding ECCH, the enrichment ratio is no more than 0.25.
Then GSSW, with no more than 0.25; and LERE, with no more than 0.25; and PPGR, with no more than 0.25.
In the case of MLDI it was no more than 0.25.
Take SGHR: the enrichment ratio is no more than 0.25.
For NTTN, the enrichment ratio is no more than 0.25.
In the case of ESRD it was no more than 0.25; in that of DVLA, no more than 0.25; in that of GCSA, no more than 0.25.
Then PADR, with no more than 0.25; and LYDK, with no more than 0.25; and YNEP, with no more than 0.25.
In the case of EMKR it was no more than 0.25; in that of TLNV, 4.05; in that of KSAK, no more than 0.25.
As for VGVS, the enrichment ratio is no more than 0.25.
Then VQMM, with no more than 0.25.
In the case of RSLC it was no more than 0.25; in that of DLAW, no more than 0.25.
In the case of YYIA it was no more than 0.25.
Turning to HSCA, the enrichment ratio is no more than 0.25.
In the case of SLRK it was no more than 0.25.
As to SKWR, the enrichment ratio was no more than 0.25.
In the case of NKSE it was no more than 0.25; in that of TYEI, no more than 0.25; in that of DLDY, no more than 0.25.
Then MKIV, with no more than 0.25.
Regarding FYHV, the enrichment ratio was no more than 0.25.
As to ANTF, the enrichment ratio came out at 4.96.
Then YYAF, with no more than 0.25; and ACQQ, with no more than 0.25.
Then HWHF, with no more than 0.25; and SEYN, with no more than 0.25; and NCGD, with no more than 0.25.
Then HFDL, with no more than 0.25.
Regarding ANGM, the enrichment ratio came out at 21.9.
